According to the supplement of paper PMC7580552:
Counter-ions that a name gives are not always drawn. The list shows a part of the results. Single values are uncertain, as repeats are few or missing.

Test system: Escherichia coli W3110
Assay: planktonic growth (OD600) relative to untreated control; higher = more growth
Settings: 10 µM; 20-24 h; 30 °C; TB
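Further: stationary (unshaken) cultures in 96-well plates, started at OD600 0.05 from mid-exponential cells, with compounds supplied from DMSO stocks.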

SMILES | planktonic growth [%]
CO/N=C(\C(=O)N[C@@H]1C(=O)N2C(C(=O)OC(C)OC(C)=O)=C(COC(N)=O)CS[C@H]12)c1ccco1 (stereo partly specified) [Cefuroxime axetil] | 110
COC(=O)Nc1nc2cc([S+]([O-])c3ccccc3)ccc2[nH]1 (stereo unspecified) [Oxfendazol] | 90
NC1CCN(c2nc3c(cc2F)c(=O)c(C(=O)O)cn3-c2ccc(F)cc2F)C1 (stereo unspecified) [Tosufloxacin hydrochloride] | 4
COc1ccccc1OCC(O)COC(N)=O (stereo unspecified) [Methocarbamol] | 89
Cc1cc(N)c2ccccc2[n+]1CCCCCCCCCC[n+]1c(C)cc(N)c2ccccc21 [Dequalinium dichloride] | 56
Nc1ccn([C@@H]2CS[C@H](CO)O2)c(=O)n1 [Lamivudine] | 96
CCCCN1CCCCC1C(=O)Nc1c(C)cccc1C (stereo unspecified) [Bupivacaine hydrochloride] | 93
CCOC(=O)NNc1nncc2ccccc12 [Todralazine hydrochloride] | 108
CC(C)(C)c1ccc(C(O)CCCN2CCC(C(O)(c3ccccc3)c3ccccc3)CC2)cc1 (stereo unspecified) [Terfenadine] | 84
CC(COc1ccccc1)NC(C)C(O)c1ccc(O)cc1 (stereo unspecified) [Isoxsuprine hydrochloride] | 97
COc1ccc(CC2c3cc(OC)c(OC)cc3CC[N+]2(C)CCC(=O)OCCCCCOC(=O)CC[N+]2(C)CCc3cc(OC)c(OC)cc3C2Cc2ccc(OC)c(OC)c2)cc1OC (stereo unspecified) [Atracurium besylate] | 103
CC(=O)[C@H]1CC[C@H]2[C@@H]3CC=C4C[C@@H](O)CC[C@]4(C)[C@H]3CC[C@]12C [Pregnenolone] | 91
CCN(CCO)CCCC(C)Nc1ccnc2cc(Cl)ccc12 (stereo unspecified) [Hydroxychloroquine sulfate] | 109
CCOc1ccccc1OC(c1ccccc1)C1CNCCO1 (stereo unspecified) [Reboxetine mesylate] | 100
CN(C)CCCN1c2ccccc2Sc2ccc(Cl)cc21 [Chlorpromazine hydrochloride] | 94
Nc1ccn([C@@H]2O[C@H](CO)[C@@H](O)[C@@H]2O)c(=O)n1 [Cytarabine] | 100
COc1ccnc(C[S+]([O-])c2nc3cc(OC(F)F)ccc3[nH]2)c1OC (stereo unspecified) [Pantoprazole sodium] | 93
Nc1ccc(S(=O)(=O)Nc2ccccn2)cc1 [Sulfapyridine] | 74
C[C@@H]1C[C@H]2[C@@H]3C[C@H](F)C4=CC(=O)C=C[C@]4(C)[C@@]3(F)[C@@H](O)C[C@]2(C)[C@@]1(O)C(=O)COC(=O)C(C)(C)C [Flumethasone pivalate] | 94
CCOC(=O)c1ccc(N)cc1 [Benzocaine] | 110
CCN(CC)CCOC(=O)C(c1ccccc1)c1ccccc1 [Adiphenine hydrochloride] | 99

SMILES | planktonic growth [%]
OC(CCCN1CCCCC1)(c1ccccc1)c1ccccc1 [Diphenidol hydrochloride] | 89
COc1cccc(OC)c1C(=O)N[C@@H]1C(=O)N2[C@@H]1SC(C)(C)[C@@H]2C(=O)O [Methicillin sodium] | 94
Cc1ccc(S(=O)(=O)NC(=O)NN2CCCCCC2)cc1 [Tolazamide] | 98
C[C@]12CC[C@@H]3c4ccc(OS(=O)(=O)O)cc4CC[C@H]3[C@@H]1CCC2=O [Estropipate] | 110
Cc1ccsc1/C=C/C1=NCCCN1C [Morantel tartrate] | 98
CN(C)c1ccc(O)c2c1C[C@H]1C[C@H]3[C@H](N(C)C)C(O)=C(C(N)=O)C(=O)[C@@]3(O)C(O)=C1C2=O [Minocycline hydrochloride] | 25
CCN(CC)CCNc1ccc(CO)c2sc3ccccc3c(=O)c12 [Hycanthone] | 101
O=C(COc1ccc(Cl)cc1)N1CCN(Cc2ccc3c(c2)OCO3)CC1 [Fipexide hydrochloride] | 92
CNC(C)CCC=C(C)C (stereo unspecified) [Isometheptene mucate] | 87
CN(Cc1cnc2nc(N)nc(N)c2n1)c1ccc(C(=O)N[C@@H](CCC(=O)O)C(=O)O)cc1 (racemic) [Amethopterin (R,S)] | 94
Cc1cc(-c2ccccc2)nnc1NCCN1CCOCC1 [Minaprine dihydrochloride] | 95
NC(N)=Nc1nc(CSCC/C(N)=N/S(N)(=O)=O)cs1 [Famotidine] | 92
CC/C(=C(/CC)c1ccc(O)cc1)c1ccc(O)cc1 [Diethylstilbestrol] | 92
CC1=C(/C=C/C(C)=C/C=C/C(C)=C\C(=O)O)C(C)(C)CCC1 [Isotretinoin] | 90
CSc1ccc2c(c1)N(CCC1CCCCN1C)c1ccccc1S2 (stereo unspecified) [Thioridazine hydrochloride] | 111
CN(C)[C@@H]1C(O)=C(C(N)=O)C(=O)[C@@]2(O)C(O)=C3C(=O)c4c(O)cccc4[C@@](C)(O)[C@H]3[C@H](O)[C@@H]12 [Oxytetracycline dihydrate] | 21
CCCCNc1c(C(=O)OCC)c(C)nc2c1cnn2CC [Tracazolate hydrochloride] | 96
CCCCC1(COC(=O)CCC(=O)O)C(=O)N(c2ccccc2)N(c2ccccc2)C1=O [Suxibuzone] | 95
COc1cc(NC(C)CCCN)c2ncccc2c1 (stereo unspecified) [Primaquine diphosphate] | 100
COc1cc(-c2ccc(=O)[nH]n2)ccc1OC(F)F [Zardaverine] | 99
